{"source": "PubChem BioAssay AID1508623", "about": "(National Center for Advancing Translational Sciences (NCATS), 2021)", "note": "The campaign covered roughly 48,000 compounds. About 450 (0.94%) were called active. Roughly 19% stayed inconclusive and do not appear here. The call rests on the fitted dose curve; in most records, active means well fitted inhibition curve with a large enough effect; inconclusive means small, poorly fitted or top-dose-only effect; inactive means no such curve, though single readings can be large or run the other way. Some of the results follow.", "data": [{"experiment": "Primary qHTS for Identification of Small Molecule Inhibitors of Huntingtin Promoter Activity; further: nearly all actives have a fitted effect of over 50% in size", "conditions": "HEK293 HTT promoter firefly luciferase reporter (activity 0% = vehicle and -100% = no light), 24 h; series mostly up to 57.5 µM; activity change, negative = inhibition: at the top concentration", "how_it_was_run": "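Firefly luciferase signal from promoter-reporter HEK293 cells was scaled between vehicle (0%) and zero RLU (-100%). Compounds were tested at final concentrations of up to 57.5 uM over 24 h at 37 degrees C. PTC124 at 50 uM final served as control inhibitor.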", "values": [{"smiles": "CCOc1ccc2nc(N3CCC(C(=O)Nc4cc(C)ccc4C)CC3)sc2c1", "activity change, negative = inhibition": "inactive: 45.7%"}, {"smiles": "Cc1ccc(NC(=O)Cn2cc3c(n2)CCCC3)c(C)c1", "activity change, negative = inhibition": "inactive: -11.4%"}, {"smiles": "O=C(NC1CCCCC1)c1ccc(CSc2nc3ccncc3n2Cc2ccccc2F)cc1", "activity change, negative = inhibition": "inactive: -8.58%"}, {"smiles": "COCCCNC(=O)c1ccc2c(c1)nc1n2CCCCC1", "activity change, negative = inhibition": "inactive: 44.2%"}, {"smiles": "CCN(CC)CCCNC(=O)CSc1nc(-c2ccc(OC)cc2)cc(C(F)(F)F)n1", "activity change, negative = inhibition": "inactive: -24%"}, {"smiles": "O=C(CSCc1cnn(-c2ccccc2)c1-n1cccc1)NCc1ccc(F)cc1", "activity change, negative = inhibition": "inactive: -15.3%"}, {"smiles": "Cc1noc(Cn2c(=O)c3cc4c(cc3n(CC(=O)Nc3ccccc3F)c2=O)OCO4)n1", "activity change, negative = inhibition": "inactive: -14.4%"}, {"smiles": "CCOC(=O)C1CCC(CN(Cc2ccc(OC)cc2)S(=O)(=O)c2ccc(F)c(C(=O)Nc3cc(C)ccc3C)c2)CC1", "note": "(stereo not drawn)", "activity change, negative = inhibition": "inactive: 13.4%"}, {"smiles": "Cc1nc(N2CCCC2)c2c(C(=O)Nc3ccc(Br)cc3F)c(C)oc2n1", "activity change, negative = inhibition": "inactive: -17.3%"}, {"smiles": "CCOc1ccc(NC(=O)c2ccc3snnc3c2)cc1", "activity change, negative = inhibition": "inactive: 13.2%"}, {"smiles": "CC(C)NC(=O)C1CCC(Cn2c(=O)c3sccc3n(CC(=O)Nc3ccccc3)c2=O)CC1", "note": "(stereo not drawn)", "activity change, negative = inhibition": "inactive: -12.2%"}, {"smiles": "COc1ccc(-c2csc3nc(-c4ccccc4)oc(=O)c23)cc1OC", "activity change, negative = inhibition": "inactive: -4.42%"}, {"smiles": "Cc1cccc(-c2nc(CSc3nncn4c3cc3sccc34)c(C)o2)c1", "activity change, negative = inhibition": "inactive: 0.365%"}, {"smiles": "FC(F)(F)c1cc(-c2cccc(Br)c2)nc2ncnn12", "activity change, negative = inhibition": "inactive: -10.8%"}, {"smiles": "CCOC(=O)[C@H](CCc1ccccc1)N[C@@H](C)C(=O)N1C(=O)N(C)C[C@H]1C(=O)O", "activity change, negative = inhibition": "inactive: -6.21%"}, {"smiles": "CN1CCCN(C(c2ccccc2)c2ccc(Cl)cc2)CC1", "note": "(stereo not drawn)", "activity change, negative = inhibition": "inactive: -3.82%"}, {"smiles": "CCOc1ccc(NC(=O)c2ccc3c(SCC(=O)O)c4c(nc3c2)CCC4)cc1", "activity change, negative = inhibition": "inactive: -12.1%"}, {"smiles": "C[C@@H]1C[C@H]2[C@@H]3CCC4=CC(=O)C=C[C@]4(C)[C@@]3(Cl)[C@@H](O)C[C@]2(C)[C@@]1(OC(=O)c1ccco1)C(=O)CCl", "activity change, negative = inhibition": "inactive: -28.5%"}, {"smiles": "CCOC(=O)c1cnc2c(cnn2CC)c1NN=C(C)C", "activity change, negative = inhibition": "inactive: 2.83%"}, {"smiles": "COc1ccccc1NC(=O)N1CCN(c2nnc(C)c3c(C)n(-c4ccc(Cl)cc4)nc23)CC1", "activity change, negative = inhibition": "inactive: -4.66%"}, {"smiles": "CCOc1ccccc1NC(=O)COC(=O)c1cn(CC)c2nc(C)ccc2c1=O", "activity change, negative = inhibition": "inactive: -26.5%"}, {"smiles": "COc1cc(-c2nc3ccccn3c2Nc2ccccc2C)ccc1O", "activity change, negative = inhibition": "inactive: -11.2%"}, {"smiles": "O=C(Nc1cccc(C(F)(F)F)c1)N1CCC(CN2CCCCCC2)CC1", "activity change, negative = inhibition": "inactive: -9.7%"}, {"smiles": "CC1CCc2c(sc(NC(=O)Cn3nnc(-c4ccc(C(F)(F)F)cc4)n3)c2C#N)C1", "note": "(stereo not drawn)", "activity change, negative = inhibition": "inactive: -8.97%"}, {"smiles": "CC1CCN(c2cc3c(cc2F)c(=O)c(S(=O)(=O)c2cccc(Cl)c2)cn3Cc2ccccc2)CC1", "activity change, negative = inhibition": "inactive: -8.41%"}, {"smiles": "COc1ccc(C2=C(C(C)=O)Sc3nnc(-c4ccc(C)cc4)n3N2C(C)=O)cc1OC", "activity change, negative = inhibition": "inactive: -19.1%"}, {"smiles": "COc1ccc(NC(=O)C(=O)NCCc2sc(-c3ccc(Cl)cc3)nc2C)cc1", "activity change, negative = inhibition": "inactive: 5.07%"}, {"smiles": "COc1ccccc1CNc1ccc(-c2nc(-c3ccccn3)no2)cc1[N+](=O)[O-]", "activity change, negative = inhibition": "inactive: 22.7%"}, {"smiles": "O=C(NCc1ccc(F)cc1)c1c2c(nc3ccccc13)C(=O)N(C1CCCCC1)C2", "activity change, negative = inhibition": "inactive: 2.36%"}, {"smiles": "COc1ccc(OC)c(NC(=O)CCNS(=O)(=O)c2cccc3nsnc23)c1", "activity change, negative = inhibition": "inactive: -5.08%"}, {"smiles": "CCOc1ccc2nc(S(N)(=O)=O)sc2c1", "activity change, negative = inhibition": "inactive: 25.3%"}, {"smiles": "CCc1ccc(NC(=O)CSc2nc3n[nH]c(C)c3c(=N)n2-c2ccc(C)cc2)cc1", "activity change, negative = inhibition": "inactive: -23%"}, {"smiles": "Cc1cccc(CCNC(=O)C2CCC(CNS(=O)(=O)c3c(C)cc(C)cc3C)CC2)c1", "note": "(stereo not drawn)", "activity change, negative = inhibition": "inactive: -24.7%"}, {"smiles": "O=C(Cc1ccc(NC(=O)N2CCCCc3ccccc32)cc1)NCc1ccccc1Br", "activity change, negative = inhibition": "inactive: -11.3%"}, {"smiles": "COc1cc(Cl)c(C)cc1NC(=O)Cn1cc(S(=O)(=O)N2CCN(c3ccccc3F)CC2)c2ccccc2c1=O", "activity change, negative = inhibition": "inactive: -5.47%"}, {"smiles": "N#Cc1ccc(OC(=O)c2cc(-c3ccc(Cl)cc3)on2)cc1", "activity change, negative = inhibition": "inactive: 4.03%"}, {"smiles": "O=C(CCC1N=C2c3ccccc3N=C(SCC(=O)Nc3ccccc3F)N2C1=O)NCc1ccco1", "note": "(stereo not drawn)", "activity change, negative = inhibition": "inactive: 8.35%"}, {"smiles": "Cc1ccc(NC(=O)CN(C)S(=O)(=O)c2ccc3c(c2)n(C)c(=O)c(=O)n3C)c(C)c1", "activity change, negative = inhibition": "inactive: -15.5%"}, {"smiles": "CCc1ccc(CN2C(=O)c3ccccc3C2C(=O)NC2CCCCCC2)cc1", "note": "(stereo not drawn)", "activity change, negative = inhibition": "inactive: -18.9%"}, {"smiles": "CCOc1ccc(-c2c(C)nn3c(C)c(C(=O)NCc4cccc(OC)c4)cnc23)cc1OCC", "activity change, negative = inhibition": "inactive: -33.7%"}, {"smiles": "CCc1ccccc1Nc1nn2c(=O)c3ccc(C(=O)NC4CCC(C)CC4)cc3nc2s1", "note": "(stereo not drawn)", "activity change, negative = inhibition": "inactive: -21.6%"}, {"smiles": "CC(=O)Nc1ccc(S(=O)(=O)NCc2ccc3c(c2)CCN3C(C)=O)cc1", "activity change, negative = inhibition": "inactive: -5.39%"}, {"smiles": "COc1ccc(-n2ncc(C(=O)N3CCN(Cc4ccccc4)CC3)c2C2CCN(C(=O)OC(C)(C)C)CC2)cc1", "activity change, negative = inhibition": "inactive: -7.09%"}, {"smiles": "CCOc1cc(C(=O)N(Cc2nc(-c3ccc(C)cc3)no2)C(C)C)cc(OCC)c1OCC", "activity change, negative = inhibition": "inactive: -23.6%"}, {"smiles": "Cc1nn(C(=O)COc2ccc(Cl)cc2)c(C)c1Sc1ccccc1", "activity change, negative = inhibition": "inactive: 0.724%"}, {"smiles": "COc1ccc(C(=O)Nc2cnc3ccccn3c2=O)cc1", "activity change, negative = inhibition": "inactive: 54.3%"}, {"smiles": "COc1ccc(CCNC(=O)CCCn2c(=O)c3ccccc3n(CC(=O)Nc3cccc(C)c3)c2=O)cc1OC", "activity change, negative = inhibition": "inactive: -10.6%"}, {"smiles": "CCOC(=O)c1c(NC(=O)c2ccc(S(=O)(=O)N3CCC(C)CC3)cc2)sc2c1CCN(C(C)C)C2", "activity change, negative = inhibition": "inactive: -32.2%"}]}]}
